Reference: PMC12040169 (PLOS Biology, 2025)
This is one part of the list.

The compounds below were run on T1, C. trachomatis L2/434/Bu expressing GFP (CTL2-GFP). Settings: total inclusion area; 28.5 h, 10 µM; inhibitor.
T1 construct: L2/434/Bu GFP intracellular growth in HeLa cells
Design: species or system HeLa; C. trachomatis total inclusion area by high-content imaging, normalised to DMSO
Method in brief: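 Post-fluorescence-read fixation, DNA staining with Hoechst and high-content imaging; GFP inclusion area and number per well, and nuclei counts, used as proxies for bacterial growth and host viability.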

SMILES | % of control remaining
Cc1occc1-c1nn(C2CCNCC2)c(=O)o1 [CBK284757] | 85.4205
Cc1ccc(C(=O)Nc2ncn(CC(=O)N3CCCCCC3)n2)cc1 [CBK304569] | 37.594
O=C(CCC(=O)c1ccc2c(c1)Cc1ccccc1-2)Nc1ccc(C(=O)O)cc1 [CBK268673] | 103.255
CCc1c(C)nc2ccccc2c1SCC(=O)O [CBK153279] | 107.83
COc1cccc(-c2nnc(SCc3nc4ccccc4[nH]3)n2N)c1 [CBK267549] | 105.749
Cn1sc(=O)c2cc(S(=O)(=O)NC3CC3)ccc21 [CBK009163] | 75.723
O=C(c1cc(F)c(F)cc1F)N1CCC2(CCN(Cc3nc4ccccc4[nH]3)C2)C1 (stereo not shown) [CBK132134] | 90.9262
COc1ccccc1OCCn1c(=N)n(CC(N)=O)c2ccccc21 [CBK268822C] | 105.916
Cc1ccc(NC(=O)CSCc2nc3ccccc3[nH]2)cc1 [CBK267299] | 103.645
Cc1nnc(S)n(Cc2ccc(F)cc2)c1=O [CBK288502] | 114.139
C[C@H](Nc1nccnc1-c1cccc(O)c1)c1ccccc1 [CBK037180] | 95.0445
CC(=O)NCCSc1ccc(C(F)(F)F)cn1 [CBK105298] | 95.2263
Cc1cc2nc(-c3ccc(C(=O)O)cc3)[nH]c2cc1C [CBK096054] | 121.468
COc1ccc(CNC(=O)Cn2nc3c(SCc4ccc(Cl)cc4)nccn3c2=O)cc1 [CBK300541] | 93.7583
O=C(c1ccc2nccnc2c1)N1CCCc2ccccc21 [CBK200257] | 41.208
COc1ccccc1N1CCN(C(=O)NCCCN2CCCC2=O)CC1 [CBK155612] | 95.0514
O=C1N[C@@H]2CCN(Cc3cnccn3)C[C@H]2C/C=C/CC2(CCOCC2)C(=O)N[C@H]1Cc1ccccc1 [CBK292189] | 86.526
COc1ccc(Cl)cc1NC(=O)COc1cccc2ccccc12 [CBK262995] | 101.144
O=C(CSCc1ccccc1)Nc1ccc(S(=O)(=O)N2CCOCC2)cc1 [CBK087885] | 117.92
COc1ccc(Cl)cc1NC(=O)CN(c1cc([N+](=O)[O-])ccc1C)S(C)(=O)=O [CBK266394] | 115.947
O=C(NC/C=C/c1cn(C2OC(CO)C(O)C2O)c(=O)[nH]c1=O)C(F)(F)F (stereo not shown) [CBK201298] | 83.7079
Cc1cc2cn([C@H]3C[C@@H](O)[C@@H](CO)O3)c(=O)nc2o1 [CBK201287] | 106.518
